Measurements published in ChEMBL document CHEMBL4888484, “Replenishing the malaria drug discovery pipeline: Screening and hit evaluation of the MMV Hit Generation Library 1 (HGL1) against asexual blood stage Plasmodium falciparum ,using a nano luciferase reporter read-out” (2022).
About 410 (8.5%) of roughly 4,800 compounds showed an effect of 50% or more. This is one part of the list.

system: Plasmodium falciparum; experiment: Confirmatory screen in NF54 pLDH assay, in single point, at 2uM, 72h; format: functional, Erythrocyte; conditions: timepoint 72 hour

Row | Structure (SMILES) | % Inhibition [%]
1 | Cn1nc(C2CC2)nc1COc1cc(C(F)F)nc2ccc(Cl)cc12 | 3
2 | CC(C)c1ccc(-c2n[nH]nc2C(=O)c2ccccc2N)cc1 | 11
3 | O=C(NCc1cccc(F)c1)[C@H]1CCCN(c2nc3ccccc3n(Cc3ccccc3)c2=O)C1 | 5
4 | CC(C)(C)c1cc(N)nc(C(C)(C)C)n1 | -5
5 | O=C1[C@H]2C(Cc3c[nH]c4ccccc34)N[C@@]3(C(=O)Nc4ccc(F)cc43)[C@H]2C(=O)N1CC1CCCO1 (some centres undefined) | -20
6 | Cn1cncc1CC(=O)Nc1ccnc(NC(=O)OC(C)(C)C)c1 | 100
7 | COc1ccc(-c2nccn3cc(C(=O)NCCN(C)C4CCCCC4)nc23)cc1 | 5
8 | CN1CCN(C(=O)CNC(=O)c2cccc(Cl)c2)CC1 | 8
9 | Cc1nn(Cc2nnn(C)n2)c(C)c1Br | -12
10 | CS(=O)(=O)CC1(CNC(=O)c2ccc(Br)cc2)CC1 | 11
11 | O=C(CCC(=O)Nc1cccnc1)NCc1ccc2c(c1)OCO2 | 6
12 | C[C@@H](CNc1nc(-c2ccccc2)nc2nc(-c3ccc(Cl)cc3)oc12)N1CCCCC1 | 76
13 | O[C@H]1Cc2ccccc2[C@H]1Nc1nc(-c2ccccn2)nc2c1CCNC2 | -7
14 | CC(C)C(NC[C@H]1CCCN1S(C)(=O)=O)c1cc2ccccc2o1 (some centres undefined) | 5
15 | Cn1cnn(CC(=O)N2CCc3ccccc3C2)c1=O | 10
16 | COc1ccc(Nc2nc(C(=O)Nc3ncc(C)s3)cs2)cc1OC | 13
17 | COc1ccc(NS(=O)(=O)c2ccc(NC(=O)CN(c3ccc(F)cc3)S(C)(=O)=O)cc2)cc1 | 12
18 | FC(F)(F)C1CCCC(NCc2c[nH]nc2-c2cccnc2)C1 (centres undefined) | 3
19 | Cc1c(C)n(C[C@H](O)Cn2c(C(F)(F)F)nc3ccccc32)c2c(Cl)cccc12 | -15
20 | CCN(CC)[C@H](CNC(=O)C1=NN(C)C(=O)CC1)Cc1ccccc1 | 13
21 | O=C(O)c1cccc2c(-c3cc(-c4ccccc4)n(-c4ccccc4)n3)ccc(C(=O)O)c12 | 0
22 | CC(C)C(=O)N1CC[C@H](CC(=O)NCc2ccccc2)C1 | 11

Row | Structure (SMILES) | % Inhibition [%]
23 | CNC(=O)c1nc(C(=O)NCc2ccco2)cs1 | -15
24 | O=C(NCCc1c(Cl)cccc1Cl)[C@@H]1CCCc2[nH]cnc21 | -3
25 | O=C(Nc1ccn(-c2ccccc2)n1)N1CC2CCC(O)CC2C1 (centres undefined) | -3
26 | CC(C)[C@@H]1CN(C(=O)c2ccncc2)c2ccccc2N1 | -10
27 | Cn1nc(C(=O)NCc2cccs2)cc1C(=O)NCc1cccs1 | 5
28 | O=C(NC(N1CCCC1=O)(C(F)(F)F)C(F)(F)F)c1ccco1 | -4
29 | C=CCN(CC=C)S(=O)(=O)c1ccc(S(=O)(=O)NC)cc1 | -10
30 | CCN(CC)S(=O)(=O)c1ccc2c(c1)CCCN2C(=O)c1ccc2ccccc2c1 | 10
31 | O=C(NCc1ccc(F)c(Cl)c1)c1csc(C(=O)NC2CCCC2)n1 | -4
32 | c1ccc(C(c2ccccc2)N2CCN(c3nn4cnnc4c4ccccc34)CC2)cc1 | 65
33 | C[C@@H](CC#N)NC(=O)Nc1cc(-c2ccccc2)ns1 | 17
34 | CC(=O)N(C(C)=O)c1c(-c2ccccc2)nnn1-c1ccccc1 | 10
35 | CC(NC(=O)N[C@@H]1C=C[C@H](CO)C1)c1ccncc1F (some centres undefined) | -4
36 | C[C@@H](CN1CCCCC1)NC(=O)Nc1nc(C(F)(F)F)cs1 | -14
37 | O=C(CNc1ccccc1Nc1ccc(F)cc1F)N1CCNC1=O | 0
38 | Cc1ccc(C)n1-c1ccccc1CNC(=O)c1ccc(C(F)(F)F)cc1 | -6
39 | O=C(Nc1ccc2c(c1)C(=O)N1CCC[C@H]1C(O)=N2)c1c(F)cccc1F | -20
40 | COC(=O)C1(NC(=O)c2scnc2C)CCCCC1 | -5
41 | CC(C)C(C(=O)O)N1Cc2c(cc(O)c3c2OC2(C3)C(C)CCC3C(C)(C)C(O)CCC32C)C1=O (centres undefined) | 5
42 | CCOc1c(Br)cc(Cl)cc1NCC(=O)NC(=O)NC | 14
43 | CC(C)(C)NC(=O)CNc1nnc(C2CC2)s1 | 12
44 | O=C(Nc1[nH]c(=O)ncc1F)c1coc(-c2ccccc2)n1 | 71

Row | Structure (SMILES) | % Inhibition [%]
45 | Cn1c(C(C)(C)C)nc2cc(NC3CCC4(CC3)OCCO4)ccc21 | -16
46 | CC1CCCN(C2(N3CCCC(C)C3)C(=O)Nc3ccc(F)cc32)C1 (centres undefined) | 19
47 | Cc1ccn([C@@H](C)c2nnc(Nc3ccn(Cc4c(Cl)cccc4Cl)n3)s2)n1 | 3
48 | Cc1cc(C)n(-c2ccc(N3CC4CCC3C4)nc2)n1 (centres undefined) | -2
49 | Cc1cc(NC(=O)[C@H](C)OC(=O)c2ccc3c(c2)OCC(=O)N3)on1 | -19
50 | COc1ccc(-c2cc(C(F)(F)F)nc(-n3nc(-c4cccc(OC)c4)c(Cl)c3-c3cccc(OC)c3)n2)cc1 | 92
51 | CC(C)CN1C(=O)[C@H](Cc2ccccc2)NC12CCN(C(=O)c1ccc(Cl)cc1)CC2 | 11
52 | O=C(Nc1ccccc1N1CCCC1)[C@@H]1Cc2ccccc2O1 | 7
53 | CC(C)(C)c1nc(CNc2ccc(S(=O)(=O)CCO)cc2)no1 | -21
54 | O=C(NCCOc1ccccc1)N1CCN(S(=O)(=O)c2cccc(F)c2)CC1 | 13
55 | Cc1nn(CCC(=O)NC2CCCC2)cc1Br | -12
56 | CCn1cc2c(C(F)F)cc(=O)n(CCC(=O)NCc3ccc(F)cc3)c2n1 | -8
57 | Cc1cc(Br)ccc1CNC(=O)CN1CCCCC1=O | 13
58 | Cn1c(=O)c2c(c(-c3ccccc3)cn2C)n(CC(=O)NCc2ccco2)c1=O | -13
59 | Cc1cc(NS(=O)(=O)c2ccc(Br)cc2)ccc1-c1ccc(C(=O)O)o1 | -11
60 | CC(C)(C)N(CC(N)=O)CC(=O)NC(=O)NC1CCCCC1 | 8
61 | Cc1nn(C)cc1-c1cc(C(F)(F)F)nc(N2CCOCC2)n1 | -11
62 | COc1ccc2oc(-c3ccc(CNC(=O)c4ccccc4)cc3)nc2c1 | 11
63 | Cc1cccc(N2CCN(S(=O)(=O)c3cc(-c4nnc(C)o4)co3)CC2)c1 | -12
64 | CC(C)(C)C1CCC(Nc2cccc(Cl)c2)(c2nnnn2[C@H](/C=C\c2ccc(Cl)cc2Cl)C(C)(C)C)CC1 (some centres undefined) | -13
